Source: the supplement of paper PMC10338343
± gives the standard deviation. The list shows a part of the results, in another mix than the full data.

tested on: MIWI (PIWIL1) piRISC loaded with L1MC piRNA (30 nt); test: pre-steady-state target cleavage rate (min^-1); MIWI and MILI are mouse PIWI proteins and EfPiwi is from a freshwater sponge; tags in brackets are library labels; higher = faster piRNA-guided slicing of the target; details: guide: L1MC piRNA 5'p-UAACUAAAUACUAUGCAAGCUGUAGGUCCU; auxiliary factor: 500 nM mouse GTSF1
Outline: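 At 33 °C in HEPES–potassium acetate buffer, a transcribed, DNA-blocked target RNA library […] was exposed for 0–8 or 0–960 min to 1 nM active affinity-purified piRISC carrying a single synthetic guide, with or without 500 nM GTSF1 partner protein. Uncleaved targets were sequenced and normalised to depth and to weakly complementary targets. With three trials pooled and k3 capped at 0.0001 min^-1, a burst-and-steady-state fit produced the pre-steady-state cleavage rate.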
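Also: 1 nM active piRISC with 0.1 nM target library at 33 °C single turnover.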

Sequence	pre-steady-state target cleavage rate
AGGACCUACAGCUUGCAAAGUAUUUUGUUA	0.836 ± 0.071
UGGACGUACAGCUUGCAUAGAAUUUAGUUA	0.341 ± 0.019
UCCUGGAUGAGCAUGCAUAGUAUUAAGUUA	0.203 ± 0.024
UCCACCUACAGGUAGCAUAGUAUUUAGUUA	0.863 ± 0.053
UCCUGGUACAGCUUGCAUAGUAUUUAGAUA	0.228 ± 0.038
AGGACCUACAGCUUGCAAGUAUUUAGUUA	0.434 ± 0.036
UCCUGGAUGAGCUUGCAUAGUAUUAUAGUUA	0.53 ± 0.049
UCCUGCUAGAGCUUGCAUAGUAUUUAGUAA	0.271 ± 0.031
UCCACCACAGCUUGCAUAGUAUUUAGUUA	0.992 ± 0.035
UCCUCCUACAGCUUGCAUACUAUUUACAAA	0.149 ± 0.025
AGGAUCUACAGCUUGCAUAGUAUUUAGUUA	1.7 ± 0.059
AGGACCUACAGCUUGGAUAGUAUAUAGUUA	0.736 ± 0.053
UCGACCUAGAGCUUGCAUAGAAUUUAGUUA	0.325 ± 0.029
UCCUGGUACAGCUUGCAUAGUAUUUAGUCA	0.358 ± 0.046
UCGACCUACAGCUUGCAUAGUUUUUUGUUA	0.327 ± 0.022
UCCUGGAUGUCCUUGCAUAGUUUUUAGUUA	0.0106 ± 0.0044
UCCUGGAACAGCUUGCAUAGUAUGUAGUUA	0.38 ± 0.047
UCCUGGAUGUCCUUGCAUACUAUUUAGUUA	0.0164 ± 0.0047
UCCUGGAUGUGCUUGCUUACUAUUUAGUUA	0.00515 ± 0.0042
UCCACCUACAGCUUGCAUAGAAUAUAGUUA	0.275 ± 0.029

Sequence	pre-steady-state target cleavage rate
AGGACCAAGAGCUUGCAUAGUAUUUAGUUA	1.25 ± 0.061
UGGUCCUACAGCUUCCAUAGUAUUUAGUUA	0.0846 ± 0.02
UCCUGGAUGAGCUUGCUUAGUAUUUAGUUA	0.61 ± 0.037
UCCUCCUACAGCUAGGAUAGUAUUUAGUUA	1.3 ± 0.061
AAGGACCUACAGCUUGCAUAGUAUUUAGUUA	1.29 ± 0.071
AGGACCUACAGCUUGCAUAGUUUUUAGAUA	0.259 ± 0.034
UCCUGGAACAGCUUGCAAAGUAUUAAGUUA	0.439 ± 0.041
UCCUCCUACAGGUUGCUUAGUAUUUAGUUA	1.17 ± 0.072
UCCACCUACAGCUAGCAUAGAAUUUAGUUA	0.34 ± 0.033
UCCUGCUACAGCUUGCAUAGUAUUAAGUAA	0.235 ± 0.033
AGGUCCUACAGCUUGCAUAGUAUUUAGUUA	1.43 ± 0.054
UCCUCCUACAGCUUGCAUACUAUAUAGUUA	0.198 ± 0.021
UCCUCCUACAGCUUGCAUAUUAUUUAGUUA	1.23 ± 0.04
UCGACCUACAGCUUGCAUUGUUUUUAGUUA	0.104 ± 0.0094
UCCUGGAACAGCUUGGAUAGUAUAUAGUUA	0.491 ± 0.058
UCCUGGAAGAGCUUGCAUAGUAUAUAGUUA	0.446 ± 0.037
AGGACCUACAGCAUGCAUAGUUUUUAGUUA	0.402 ± 0.026
UCCACCUUGAGCUUGCAUAGUAUUUAGAAA	0.311 ± 0.049
UCCAGCUACAGCUUGCAUAGUAUUUAGUAA	0.462 ± 0.056
UCCUGGAACAGCUUGCAUAGUAUUUAGUA	0.638 ± 0.042
